The values that follow come from ChEMBL document CHEMBL1157539, “Thousands of chemical starting points for antimalarial lead identification” (Nature, 2010).

In all, about 13,000 compounds were measured (“IFI”: median about 4, highest 2% from about 17 on). The list shows a part of the results.

The nature of this experiment: GSK_TCMDC: Inhibition Frequency Index (IFI). The number of non-kinase HTS assays where a compound showed > 50 % inhibition, expressed as a percentage of the number of such assays in which the compound was tested (-0 is zero). The format is functional.
With `CCOC(=O)CCCCCNC[C@H](O)c1ccccc1`, the IFI is 0%. Under `Cc1cc(Br)c(OCCCON2C(=N)N=C(N)NC2(C)C)c(Br)c1` stands 10.4%. Under `O=C([C@H]1CCCCN1c1ccc([N+](=O)[O-])c2ccccc12)N1CCN(c2ncccn2)CC1` stands 2.16%.

The compound `CN1CCC(NCc2ccc(-c3cccc(S(=O)(=O)NCc4ccccc4)c3)cc2)CC1` displayed an IFI of 9.71%. For `Cc1ccc2nc(C)n(C3CCN(C(=O)Cc4ccc(F)c(F)c4)CC3)c2c1` the value was -0%; for `Cc1cc(N(C)C)nc(Nc2ccc(NS(=O)(=O)c3ccccc3)cc2)n1`, 9.62%. Under `CCC(C)NC(=O)Nc1ccc(-c2cccc(-c3nc4cccc(C)c4[nH]3)c2)cc1` (stereo not given) stands 4.85%; under `COc1cccc(CN2CCCN(Cc3cccc(NC(=O)c4ccc(Cl)c(Cl)c4)c3)CC2)c1`, 5.96%; under `CC(C)NCc1ccc(-c2cccc(-c3nc4cc(C(F)(F)F)ccc4[nH]3)c2)cc1`, 5.71%. Under `COc1ccc(CN2CCC(CNCc3cccc(-c4ccccc4)c3)CC2)cc1` stands 8.97%; under `Cc1cccc2nc(-c3cccc(-c4cccc(CNCc5cnn(-c6ccccc6)n5)c4)c3)[nH]c12`, 1.64%. The compound `CC(C)COc1ccc(Cl)cc1Cc1nc(-c2nc3cccc(CN4CCN(C)CC4)c3[nH]2)cs1` showed an IFI of 10.3%. For `CC(C)C(=O)NC(c1ccc(Cl)cc1)c1ccc2cccnc2c1O` (stereo not given) the value was 14.3%; for `COc1ccc(CCN(C)CCOc2ccc(NC(=O)c3cccc4c(=O)c5cc(SC)ccc5[nH]c34)cc2)cc1OC`, 3.45%; for `O=C(Nc1ccc(-c2cccc(-c3nc4ccccc4[nH]3)c2)cc1)NC1CC1c1ccccc1` (stereo not given), 7%. For `CCCN1CCN(CCCNC(=O)c2cc3c(Cl)nc4ccc(C)cc4c3s2)CC1` the value was 5.13%; for `O=C(Nc1ccc(F)cc1)N1CCCN(c2ccnc3cc(Cl)ccc23)CC1`, 1.54%. For `CCN1CCN(c2cc(C)c3cc(NC(=O)c4cccc(Cl)c4)ccc3n2)CC1` the value was 3.55%; for `CN1CCN(CC(=O)Nc2cccc(-c3ccc(-c4nc5cc(F)ccc5[nH]4)cc3)c2)CC1`, 4.5%. Compound `O=C(NCCCN1CCCCC1)c1cccc(Nc2nccc(Nc3ccc(Oc4ccccc4)cc3)n2)c1` came in with an IFI of 2.92%. Under `Cc1ccc(NC(=O)c2ccc(CN3CCCN(CCC(C)C)CC3)cc2)cc1C` stands 3.97%; under `COc1ccc(-c2nc(NC(=O)CSc3ccc([N+](=O)[O-])cc3)sc2C)cc1`, 7.21%; under `CCCN(CCC)S(=O)(=O)c1ccc(C(=O)Nc2nc3ccc(-c4cc(=O)[nH]c(Nc5ccccc5Cl)n4)cc3[nH]2)cc1`, 4.17%. For `COc1ccc2ncc(F)c(CCN3CCC(NCc4cnc5c(c4)NC(=O)CS5)CC3)c2c1` the value was 1.45%; for `OC(CN1CCN(c2cccc(Cl)c2)CC1)C(c1ccccc1)c1ccccc1` (stereo not given), 0.75%.
